# Results reported in paper PMC4336329 (PLoS ONE, 2015).
# In all, about 310,000 compounds went through this assay and about 14,000 (4.5%) showed an effect of 50% or more. The effect is printed as a negative number. The list shows a part of the results.
# Biological target: human ether-à-go-go-related gene (hERG) potassium channel (human, UniProt Q12809)
# Assay: primary screen, population patch clamp on CHO cells stably expressing hERG
# 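Note: peak tail current of the secondary pulse compared with the same well before compound.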
# human ether-à-go-go-related gene (hERG) potassium channel, sequence (Q12809 whole entry, looked up): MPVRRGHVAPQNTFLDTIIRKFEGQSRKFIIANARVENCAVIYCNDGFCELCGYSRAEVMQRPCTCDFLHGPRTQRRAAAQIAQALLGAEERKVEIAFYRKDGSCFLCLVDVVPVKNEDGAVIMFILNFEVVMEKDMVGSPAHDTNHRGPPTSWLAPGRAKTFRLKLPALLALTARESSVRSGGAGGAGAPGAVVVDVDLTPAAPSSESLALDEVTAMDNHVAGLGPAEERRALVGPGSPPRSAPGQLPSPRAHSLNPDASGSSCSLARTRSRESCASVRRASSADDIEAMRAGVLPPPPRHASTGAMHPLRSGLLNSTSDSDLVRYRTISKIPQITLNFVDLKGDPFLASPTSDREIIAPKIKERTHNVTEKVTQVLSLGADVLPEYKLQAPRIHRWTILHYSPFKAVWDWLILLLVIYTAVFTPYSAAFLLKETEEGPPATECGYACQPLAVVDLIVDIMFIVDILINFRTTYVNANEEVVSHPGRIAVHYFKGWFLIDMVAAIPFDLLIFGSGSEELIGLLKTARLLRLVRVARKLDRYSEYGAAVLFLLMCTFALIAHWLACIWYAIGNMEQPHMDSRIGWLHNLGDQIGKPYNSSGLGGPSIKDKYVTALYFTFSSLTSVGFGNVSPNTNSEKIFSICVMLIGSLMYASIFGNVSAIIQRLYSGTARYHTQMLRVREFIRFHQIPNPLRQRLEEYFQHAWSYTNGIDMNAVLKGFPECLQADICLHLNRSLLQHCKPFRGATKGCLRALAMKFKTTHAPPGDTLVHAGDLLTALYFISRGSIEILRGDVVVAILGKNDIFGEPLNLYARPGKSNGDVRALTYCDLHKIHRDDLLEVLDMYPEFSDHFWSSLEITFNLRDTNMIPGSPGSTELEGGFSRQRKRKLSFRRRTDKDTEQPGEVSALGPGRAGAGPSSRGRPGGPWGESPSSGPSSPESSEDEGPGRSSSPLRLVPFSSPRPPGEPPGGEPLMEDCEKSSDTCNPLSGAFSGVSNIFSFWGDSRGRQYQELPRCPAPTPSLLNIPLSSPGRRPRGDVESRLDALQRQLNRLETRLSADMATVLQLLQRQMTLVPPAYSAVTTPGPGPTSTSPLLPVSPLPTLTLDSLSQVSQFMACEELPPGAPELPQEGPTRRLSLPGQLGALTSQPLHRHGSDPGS
row,SMILES,"hERG current change (%, negative = inhibition) at 10uM [%]"
1,CS(=O)(=O)N(CC(=O)NCc1ccc2c(c1)OCO2)Cc1ccccc1,-10.9
2,O=C(CCC(=O)N1CCc2ccccc21)Nc1ccccc1,-7.99
3,CSCC[C@H](NC(=O)[C@@H]1CSC2c3ccccc3C(=O)N21)C(=O)N1CCC[C@H]1CO (stereo partly drawn),1.52
4,N#Cc1c(-c2cccc([N+](=O)[O-])c2)nc2n(c1=O)CCS2,5.37
5,CCCCCn1ccc(=N)cc1.I,11.7
6,C=CCn1c(=N)n(CC(=O)c2ccc(Br)cc2)c2ccccc21,-43.5
7,C#CC[N+](CC)(CC)CC#Cc1ccccc1.[Br-],9.22
8,CC(=O)c1cccc(NC(=S)NC(=O)c2cccc(C)c2)c1,17.9
9,Cc1cc(C)cc(C(=O)NCC(=O)OCC(=O)NCC(F)(F)F)c1,24.6
10,CCOc1ccc(C(CC(=O)O)NC(=O)C(c2ccccc2)c2ccccc2)cc1OC (stereo not drawn),16.2
11,CCCc1cc(=O)[nH]c(SCc2csc(-c3ccccc3)n2)n1,-7.55
12,COc1ccc(NC(=O)CN(C)C(=O)c2cccc(-n3cccc3)c2)cc1,-29.6
13,N#Cc1nc(-c2ccccc2)oc1NCC1CCCO1 (stereo not drawn),7.43
14,CCOC(=O)C1=C(N)N2C(=O)CSC2=C(C(=O)OC)C1,4.5
15,CN1CCN(c2ccc(S(=O)(=O)N3CCCCC3)cc2NC(=O)COc2cccc(Cl)c2)CC1,-49.1
16,Cc1ccc(/C=C(\C#N)C(=O)NC(C)c2ccccc2)o1 (stereo not drawn),13.6
17,COc1cc(Cl)ccc1OCc1cc(C(=O)NC(C)Cc2cccnc2)no1 (stereo not drawn),-30.7
18,COc1ccc(C)cc1NC(=O)CCNC(=O)c1ccco1,8.47
19,Cc1ccc(N2CN=c3s/c(=C\c4ccccn4)c(=O)n3C2)cc1,-0.242
20,COc1ccc(CN(C(=O)CO/N=C/c2ccccc2)c2ccccc2C(=O)O)cc1,4.03
21,COC(=O)[C@H](Cc1ccccc1)NC(=O)O[C@@H]1C(=O)c2cc(OC)ccc2O[C@H]1c1ccc(OC)c(Br)c1,17.9
22,O=C1C(Cc2cccc([N+](=O)[O-])c2)S/C(=N/N=C/c2ccco2)N1c1ccccc1 (stereo not drawn),2.64
23,COc1ccc(NC(=O)C2CCC(=O)N2S(=O)(=O)c2ccc(C)cc2)c(OC)c1 (stereo not drawn),-11
24,O=c1c2c(-c3ccc([N+](=O)[O-])cc3)csc2nc2n1CCCCC2,-34.6
